Reference: PubChem BioAssay (Tox21)
“And” between values parts separate entries of the source, which are not always exact repeats. Equal entries are not always repeated. The inconclusive results got no clear call from the source; some entries with a clear call stand among them for comparison. Where the call is inconclusive, the potency comes from a doubtful curve fit. The source made the active and inactive calls. The call rests on the fitted dose curve; in most records, active means well fitted cell-killing curve with a large enough effect in the repeat runs; inconclusive means weak or mixed curves, or effect the other way; inactive means flat fitted curve, though single readings scatter.

Test: Human pregnane X receptor (PXR) small molecule agonists, qHTS cell viability counter screen (AID 1346977); further: nearly all actives have a fitted effect of over 50% in size
Conditions: PXR-Luc HepG2 viability, CellTiter-Fluor, 24 h; series mostly up to 92.4 µM
Summary of the method: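 Fluorescence read-out (CellTiter-Fluor) of viability in PXR-Luc HepG2 cells, multiplexed with the luciferase agonist read. Compounds in DMSO added after 5hr plating; 24hr total exposure at 37C, 5% CO2.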
Potency means the concentration at half of the fitted maximal effect; tags describe the fitted curve by direction and shape.

SMILES	Potency
CCCCCCCCCOC(=O)c1ccc(O)cc1	inconclusive: 42.7 µM [cytotoxic, partial curve]
CCCCCCCCCCCCN(CCO)CCO	active: 48.4 µM
CCCCCCOc1cc(C)c(O)c(C)c1C	active: 61.9 µM
CCCCC(CC)COC(=O)c1ccc(O)cc1 (centres undefined)	inconclusive: 70.8 µM [cytotoxic, single point] and inconclusive: 68.6 µM [cytotoxic]
CCN=c1cc2oc3cc(NCC)c(C)cc3c(-c3ccccc3C(=O)OCC)c-2cc1C	active: 2.51 µM and active: 1.54 µM
CN(C)CCCN1c2ccccc2CCc2ccc(Cl)cc21	active: 30.6 µM and active: 29.8 µM
C=C1C(CCl)(CCl)C2(Cl)C(Cl)C(Cl)C1(Cl)C2(Cl)Cl (centres undefined)	inconclusive: 67.8 µM [cytotoxic, single point]
CCc1cc(Cc2cc(CC)cc(C(C)(C)C)c2O)c(O)c(C(C)(C)C)c1	active: 30.6 µM
CC1=C(C(=O)OC(C)C)C(c2cccc([N+](=O)[O-])c2)C(C(=O)OC2CN(C(c3ccccc3)c3ccccc3)C2)=C(N)N1 (centres undefined)	active: 16.8 µM
CCc1cc(SCc2sc(-c3ccc(C(F)(F)F)cc3)nc2CN2CCN(c3ccc(OC)cc3)CC2)ccc1OCC(=O)O	active: 54.5 µM
CC(C)(c1cc(Br)c(OCCO)c(Br)c1)c1cc(Br)c(OCCO)c(Br)c1	inconclusive: 53.3 µM [cytotoxic, single point]
CN(C)CCOc1ccc(/C(=C(/CCCl)c2ccccc2)c2ccccc2)cc1	active: 22.8 µM
CSc1ccc2c(c1)C(N1CCN(C)CC1)Cc1ccccc1S2 (centres undefined)	inconclusive: 33.5 µM [cytotoxic, single point]
CC(=O)O[C@]1(C(C)=O)CC[C@H]2[C@@H]3C=C(C)C4=CC(=O)CC[C@]4(C)[C@H]3CC[C@@]21C	inconclusive: 77 µM [cytotoxic, single point]
